In PMC4336329 (PLoS ONE, 2015):
Screen size: about 310,000 compounds; about 2,200 (0.71%) showed an effect of 50% or more. Effects have a minus sign here. The list shows a part of the results.

target: human ether-à-go-go-related gene (hERG) potassium channel (human, UniProt Q12809); assay: primary screen, population patch clamp on CHO cells stably expressing hERG
Sequence (Q12809 whole entry, looked up): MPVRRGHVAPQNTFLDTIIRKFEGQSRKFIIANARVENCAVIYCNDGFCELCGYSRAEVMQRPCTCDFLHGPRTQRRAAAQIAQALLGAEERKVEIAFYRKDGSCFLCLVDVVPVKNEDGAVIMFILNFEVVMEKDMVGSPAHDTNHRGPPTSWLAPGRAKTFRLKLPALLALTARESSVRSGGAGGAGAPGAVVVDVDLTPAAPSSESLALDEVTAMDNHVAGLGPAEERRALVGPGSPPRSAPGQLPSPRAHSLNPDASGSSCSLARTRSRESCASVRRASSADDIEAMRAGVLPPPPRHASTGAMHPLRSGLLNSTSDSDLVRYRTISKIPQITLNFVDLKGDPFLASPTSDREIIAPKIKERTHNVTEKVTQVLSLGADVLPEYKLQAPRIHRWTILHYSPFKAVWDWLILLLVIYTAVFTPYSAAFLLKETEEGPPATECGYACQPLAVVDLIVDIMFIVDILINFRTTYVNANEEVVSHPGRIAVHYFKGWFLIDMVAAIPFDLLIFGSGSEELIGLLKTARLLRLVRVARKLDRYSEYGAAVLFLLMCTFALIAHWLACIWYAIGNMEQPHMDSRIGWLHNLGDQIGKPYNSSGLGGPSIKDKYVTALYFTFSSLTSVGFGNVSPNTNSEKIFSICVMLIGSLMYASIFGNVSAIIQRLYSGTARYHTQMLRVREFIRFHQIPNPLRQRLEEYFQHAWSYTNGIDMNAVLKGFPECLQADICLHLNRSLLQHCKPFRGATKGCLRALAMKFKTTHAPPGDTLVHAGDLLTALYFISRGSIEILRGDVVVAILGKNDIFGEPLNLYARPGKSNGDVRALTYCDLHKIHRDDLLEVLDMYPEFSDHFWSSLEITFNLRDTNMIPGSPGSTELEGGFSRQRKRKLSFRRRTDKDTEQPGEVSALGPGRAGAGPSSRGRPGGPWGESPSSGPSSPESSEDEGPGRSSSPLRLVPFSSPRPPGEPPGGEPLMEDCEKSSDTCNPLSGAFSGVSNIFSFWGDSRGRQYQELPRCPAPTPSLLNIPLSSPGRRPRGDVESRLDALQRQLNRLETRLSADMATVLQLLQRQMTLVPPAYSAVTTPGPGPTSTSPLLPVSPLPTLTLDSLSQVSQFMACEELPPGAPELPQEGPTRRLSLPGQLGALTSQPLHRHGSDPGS

Row | Structure (SMILES) | hERG current change (%, negative = inhibition) at 1uM
1 | COc1ccc(-c2csc3[nH]c(=S)n(-c4ccccc4)c(=O)c23)cc1OC | 9.11%
2 | O=C(OC1CCOC1=O)c1cc(-c2ccc(Br)cc2)nc2ccccc12 (stereo not drawn) | -8.73%
3 | S=C(Nc1ccc(Nc2ccccc2)cc1)NN1CCOCC1 | 10.7%
4 | O=C(CSc1nc(C2CC2)nc2ccccc12)N1c2ccccc2Sc2ccc(C(F)(F)F)cc21 | 3.63%
5 | CCOC(=O)c1nnn2c3ccccc3c(=O)n(C)c12 | 5.58%
6 | C/C(=N\Nc1cccc(C(=O)O)c1)c1cc2ccccc2o1 | 7.85%
7 | Cc1nc(N2CCN(Cc3ccccc3)CC2)nc2c1C(=O)CCC2 | 13.7%
8 | CSc1ccc(CCNC(=O)C2CCCN(c3ncnc4c3nc3n4CCCCC3)C2)cc1 (stereo not drawn) | -2.32%
9 | COc1ccc(C)cc1NC(=S)N1CCOCC1 | 13.4%
10 | COc1ccc(C(=O)CSc2n[nH]c(-c3ccncc3)n2)cc1[N+](=O)[O-] | 19.3%
11 | N#Cc1ccc(OS(=O)(=O)c2ccc(-c3ccon3)s2)cc1 | -20.8%
12 | O=C(COc1ccccc1F)NNC(=O)c1ccc2c(=O)n3c(nc2c1)CCC3 | 9.25%
13 | CC(=O)c1csc(COc2cc(Cl)cc(Cl)c2)n1 | 6.69%
14 | Cc1nc(Cl)cc(CS(=O)(=O)c2ccc(Cl)cc2)n1 | 19%
15 | CC1(C)C2CCC13CS(=O)(=O)N[C@@H]3C2 (stereo partly drawn) | 17.5%
16 | COCCN(C(=O)COC(=O)CNC(=O)c1cccs1)c1c(N)n(Cc2ccccc2)c(=O)[nH]c1=O | 10.3%
17 | COc1ccc(C(CNC(=O)CCOc2ccccc2)N(C)C)cc1 (stereo not drawn) | -13.2%
18 | Clc1ccc(Cn2c(-c3cccnc3Cl)nc3ccccc32)cc1 | -15.7%
19 | CCOc1cccc2c1OC1(C)CC2NC(=O)N1c1cccc(C(=O)N2CCN(c3ccccn3)CC2)c1 (stereo not drawn) | 10.5%
20 | COc1ccc(CC(=O)NCc2nnc(SCC(=O)Nc3nccs3)n2-c2ccccc2)cc1 | 2.57%
21 | N#CCCCSc1nnc(-c2ccccn2)o1 | 8.28%
22 | O=C(CNc1ccccc1F)Nc1cc(S(=O)(=O)N2CCCCC2)ccc1Cl | 7.94%

Row | Structure (SMILES) | hERG current change (%, negative = inhibition) at 1uM
23 | CCOC(=O)c1c(C)[nH]c(C)c1C(=O)COC(=O)c1cc(OC)c(OC)cc1OC | 8.86%
24 | O=C(O)c1ccc(OCCOc2ccccc2)cc1 | 1.14%
25 | C=CCOc1c(Br)cc(C2C3=C(CCCC3=O)N(C)C3=C2C(=O)CCC3)cc1OCC | 8.43%
26 | CS(=O)(=O)N1N=C(c2ccccc2)CC1c1ccc2c(c1)OCO2 (stereo not drawn) | 11.6%
27 | O=C(COC(=O)CNC(=O)c1cccc(Br)c1)Nc1nnc(-c2ccccc2)o1 | 9.64%
28 | CCOC(=O)c1sc(N)c(C#N)c1COC(=O)CNC(=O)c1cc(OC)c(OC)c(OC)c1 | 4.68%
29 | CCCCn1nc(CC(=O)O)c2ccccc2c1=O | 15.4%
30 | CCOc1cc(/C=C2\SC(=O)N=C2N)ccc1O | 14.1%
31 | C=CCn1c(SCc2c(Cl)cccc2Cl)nnc1-c1cccnc1 | -2.22%
32 | CC(C(=O)Nc1ccc(S(=O)(=O)N2CCOCC2)cc1)N(c1ccccc1)S(C)(=O)=O (stereo not drawn) | 9.96%
33 | S=C(Nc1ccccc1)N1CCN(c2ccc(N3CCOCC3)nn2)CC1 | 9.8%
34 | C=CCNC(=O)c1ccc(-n2cccc2)cc1 | 14.9%
35 | Cc1cc(NC(=O)COC(=O)CCS(=O)(=O)c2ccc(Cl)cc2)no1 | 14.3%
36 | Cc1nnc(-c2cccc(Br)c2)c2cn(-c3cccc(Br)c3)nc12 | 5.15%
37 | Cc1csc(NC(=O)CSc2nc(=O)[nH]c3c2CCCC3)n1 | 11.3%
38 | CCOc1ncccc1C(=O)Nc1ccc(F)c(Cl)c1 | 13.9%
39 | C#CCSc1nnnn1-c1ccc(OCC)cc1 | 6.72%
40 | C=CCN(c1ccc(Cl)cc1)S(=O)(=O)c1cccc(C(=O)OCC(=O)N(C)C)c1 | 18.2%
41 | CC(C)(C)NC(=O)C(c1ccco1)N(C(=O)Cn1nnc(-c2ccc(F)cc2)n1)c1ccccc1F (stereo not drawn) | 4.46%
42 | COc1ccccc1NC(=O)Cn1nc(Cc2cccnc2)c2ccccc2c1=O | 12.7%
43 | Cc1c(C)n(Cc2ccccc2)c2ccc(C(=O)OCCCN(C)C)cc12 | 12.1%
44 | CCCCN(CC)CCNC(=O)c1cn(CCOC)c(=O)c2c1c1ccccc1n2C | 7.47%

Row | Structure (SMILES) | hERG current change (%, negative = inhibition) at 1uM
45 | CCCCn1c(N)c(N(Cc2ccccc2OC)C(=O)C(C)C)c(=O)[nH]c1=O | 13.6%
46 | COc1ccc(C(=O)NN2C(=S)N(c3ccc(OC)cc3)C(=O)C2CC(N)=O)cc1 (stereo not drawn) | 14.7%
47 | COc1cccc(Sc2nc(-c3ccccc3)ncc2S(C)(=O)=O)c1 | 9.48%
48 | CC(C)N1CCC(NC(=O)Nc2ccccc2)CC1 | 0.863%
49 | C=C(C)C(=O)Nc1cccc(C2=NOC3(C2)C[C@H](C(N)=O)N(C(=O)C(c2ccccc2)c2ccccc2)C3)c1 (stereo partly drawn) | -17%
50 | Cc1ccccc1NC(=O)CN1C(=O)NC(C)(CCc2ccccc2)C1=O (stereo not drawn) | 9.99%
51 | CCOC(=O)c1c(-c2ccc(C)cc2C)csc1NC(=O)CSc1nnnn1C | -3.8%
52 | O=C(NCc1cccc(F)c1F)C1CCC(=O)N(C2CC2)C1 (stereo not drawn) | 20.2%
53 | O=C(NCc1ccc2c(c1)OCO2)c1cccc(C(=O)NCc2ccc3c(c2)OCO3)c1 | 7.02%
54 | Cc1ccc(Cl)cc1-c1ccc(C=Nc2ccc(N3CCOCC3)cc2)o1 | 11.3%
55 | COC(=O)c1cccnc1-n1c(=O)c2cccnc2n(Cc2ccc([N+](=O)[O-])cc2)c1=O | 3.05%
56 | CCSc1nc(N)nc(-c2cccs2)c1C#N | 8.35%
57 | O=C(Nc1nncs1)C(Sc1ccccc1)c1ccccc1 (stereo not drawn) | 9.4%
58 | CN(C)CCN(CC1CCCN(Cc2ccccc2F)C1)C(=O)Cc1c(F)cccc1F (stereo not drawn) | 9.43%
59 | CS(=O)(=O)N1CCN(c2ccc(Cl)cc2[N+](=O)[O-])CC1 | 5.63%
60 | CN(C)C=O.COc1ccc(/C=C/c2nc3ccccc3c(=O)n2-c2cccc(C(=O)O)c2)cc1 | 1.21%
61 | CCn1c(C(=O)NCc2cccnc2)cc2sc(Cl)cc21 | -15.4%
62 | CCCCOC(=O)C1=C(C)NC(=O)NC1c1ccccc1 (stereo not drawn) | 9.04%
63 | O=C(NC1CCCCC1)c1cccs1 | 10.5%
64 | COc1ccc(C(=O)N2C(=S)NC(=O)/C2=C\c2ccc(C)cc2)cc1 | 6.5%
65 | O=C(N/N=C/c1ccc[nH]1)c1sc2ccccc2c1Cl | -4.02%
66 | COc1ccc(CCNC(=O)COc2ncnc3ccccc23)cc1 | 3.52%

Row | Structure (SMILES) | hERG current change (%, negative = inhibition) at 1uM
67 | O=C(Cn1cnc2c(nnn2Cc2ccc(Cl)cc2)c1=O)NCC1CCCO1 (stereo not drawn) | 6.32%
68 | Cc1cc(C)cc(N(C(=O)c2csnn2)C(C(=O)NC2CCCCC2)c2ccncc2)c1 (stereo not drawn) | 10.6%
69 | Cc1ccc(CCNC(=O)C2CCN(S(=O)(=O)N3CCCC3)CC2)cc1 | 4.73%
70 | COc1cccc(NC(=O)CN2C(=O)NC3(CCCc4ccccc43)C2=O)c1 (stereo not drawn) | 13.1%
71 | Cn1ncc([N+](=O)[O-])c1C(=O)NCc1ccccc1 | 17.1%
72 | Cc1c(C)n(Cc2ccccc2)c2ccc(C(=O)OCCN(C)C)cc12.O=C(O)CCC(=O)O | 8.12%
73 | Cc1cccc(NC(=O)C2CCN(C(=O)c3ccc(F)cc3)CC2)n1 | 10.7%
74 | COc1ccc(-c2cc3ccc(OC(C)C(=O)O)cc3oc2=O)cc1 (stereo not drawn) | 12.3%
75 | COc1ccc(C(CNC(=O)c2ccc(NS(=O)(=O)c3ccc4c(c3)OCCO4)cc2)N(C)C)cc1 (stereo not drawn) | 16.1%
76 | O=C(CN1CCN(Cc2ccc(Cl)cc2)C1=O)NCCCN1CCN(c2ccc(F)cc2)CC1 | -36.8%
77 | COc1ccc(CN2CCC(=O)N([C@H](CO)Cc3ccccc3)CC2)cc1OC | 10.1%
78 | COC(=O)[C@@H](Cc1c[nH]c2ccccc12)NC(=O)CNC(=O)c1ccccc1OC | 11%
79 | COc1cc(/C=C/C(=O)Nc2cc(C(F)(F)F)ccc2Cl)cc(OC)c1OC | 10.8%
80 | C/C(=N/Nc1ccccc1C(=O)O)c1cccs1 | 17.5%
81 | CSc1nnc(-c2ccc(S(=O)(=O)N3CCOCC3)cc2)n1CC1CCCO1 (stereo not drawn) | 6.43%
82 | O=[N+]([O-])c1ccc(-c2ccc(C=Nc3cccc4ccccc34)o2)cc1 | 16.3%
83 | CC(OC(=O)c1ccc2ccccc2n1)C(=O)Nc1ccc(N2CCOCC2)cc1 (stereo not drawn) | -1.4%
84 | Clc1ccccc1Cn1nnc2c(NCC3CC3)ncnc21 | 4.46%
85 | CC(C)(C)C(=O)Cn1c(NCCCl)nc2ccccc21.Cl | 13.8%
86 | Cc1cc(=O)cc(C)n1-c1ccc(Cl)cc1 | 13.2%
87 | CCN(CC)c1ccc(NC(=O)c2ccco2)c(C)c1 | 0.0417%
